Laboratory results as given in PubChem BioAssay AID624417 (National Center for Advancing Translational Sciences (NCATS), 2012).
Out of some 410,000 compounds screened, about 6,400 (1.6%) were called active. The inconclusive results got no clear call from the source; some entries with a clear call stand among them for comparison. Calls follow the shape of the dose curve; as a rule, active = well fitted inhibition curve with a large enough effect; inconclusive = small, poorly fitted or top-dose-only effect; inactive = no such curve, though single readings can be large or run the other way. No potency is given beside an inconclusive call; the fits are too rough.

Biological target: Glucagon-like peptide 1 receptor (Homo sapiens) (UniProt P43220)
Assay: qHTS of GLP-1 Receptor Inverse Agonists (Inhibition Mode); also: nearly all actives have a fitted effect of over 55% in size
Details: HEK293 GLP-1R CRE-luciferase, luminescence, 24 h, GLP-1R form is constitutively active; activity change, negative = inhibition: at 38.3 µM (top of the series) unless noted
In short: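 HEK293 cells stably co-expressing a cAMP-responsive luciferase reporter and constitutively active GLP-1R were seeded, incubated 12 h, then exposed to compounds for 24 h at 37 C. Luminescence was read 12 min after detection reagent; inverse agonists lower signal.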
% is scaled to controls: 0 for no effect and ±100 for the full control effect; potency is read from the fitted curve at half-maximal effect; tags tell the direction and shape of the fitted curve.

Sequence of UniProt P43220 (P43220 whole entry, looked up): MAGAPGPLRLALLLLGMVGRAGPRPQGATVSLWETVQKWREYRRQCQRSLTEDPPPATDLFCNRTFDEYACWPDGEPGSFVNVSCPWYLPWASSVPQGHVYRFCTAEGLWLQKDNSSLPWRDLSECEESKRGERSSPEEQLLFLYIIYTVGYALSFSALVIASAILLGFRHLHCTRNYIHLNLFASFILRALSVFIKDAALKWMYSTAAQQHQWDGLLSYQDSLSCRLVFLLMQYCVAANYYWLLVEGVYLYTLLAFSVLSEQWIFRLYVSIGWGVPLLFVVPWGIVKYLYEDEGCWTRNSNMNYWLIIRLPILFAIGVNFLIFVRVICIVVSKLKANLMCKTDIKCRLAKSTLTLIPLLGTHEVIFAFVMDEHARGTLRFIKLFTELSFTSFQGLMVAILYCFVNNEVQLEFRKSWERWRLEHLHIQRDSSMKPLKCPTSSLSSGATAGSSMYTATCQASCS

Row | Structure (SMILES) | Potency | activity change, negative = inhibition
1 | Cc1ccc(-n2nnnc2CCl)cc1 | inconclusive [inhibitor, partial curve, poor fit] | 
2 | Cc1ccc(-c2nn(-c3ccccc3)cc2C(=O)N2CCN(c3ccccn3)CC2)cc1 | inconclusive [inhibitor, full curve] | 
3 | CC(C)C1Nc2ccc(C(=O)O)cc2C2C=CCC21 (stereo unspecified) |  | inactive: -4.82% [at 0.307 µM]
4 | COc1ccc(-c2nsc(NC(=O)c3oc4ccccc4c3C)n2)cc1 |  | inactive: 11.5%
5 | COC(=O)c1ccc(CN2CCCC(C(=O)c3cc(F)ccc3OC)C2)cc1 (stereo unspecified) | inconclusive [inhibitor, partial curve, poor fit] | 
6 | CCOc1c(Cl)cc(/C=C/C(=O)N(CC)CC(=O)Nc2ccc(NC(C)=O)cc2)cc1OC |  | inactive: -3.32%
7 | COc1ccc(/C(C)=N/OCC(=O)N2CC3(C)CC2CC(C)(C)C3)cc1 (stereo unspecified) | inconclusive [inhibitor, partial curve, poor fit] | 
8 | Cc1ccc(C)c(NC(=O)CN(C)C(=O)c2ccc3[nH]c4c(c3c2)CC(C)CC4)c1 (stereo unspecified) | inconclusive [inhibitor, partial curve, poor fit] | 
9 | O=[N+]([O-])CC(c1ccccc1)c1c[nH]c2ccccc12 (stereo unspecified) | inconclusive [inhibitor, partial curve, poor fit] | 
10 | CC1=C(C(=O)Nc2ccc(C(=O)N3CCN(c4cccc(Cl)c4)CC3)cc2)SCCO1 | inconclusive [inhibitor, partial curve, poor fit] | 
11 | Cc1ccc(NC(=O)CN(C)C(=O)COC(=O)C(C)(C)Oc2ccc(Cl)cc2)cc1 | inconclusive [inhibitor, single point] | 
12 | CCCn1c(SCC(=O)Nc2cc(C)on2)nc2c1c(=O)n(C)c(=O)n2C |  | inactive: 0.804%
13 | COc1ccccc1NC(=O)CN1CCC(c2nc3ccc(C)cc3[nH]2)CC1 | inconclusive [inhibitor, partial curve, poor fit] | 
14 | CCOC(=O)N1CCN(CC(O)COCC2=CCC3CC2C3(C)C)CC1 (stereo unspecified) | inconclusive [inhibitor, partial curve, poor fit] | 
15 | Cc1ccc2cc3cc(C(=O)N4CCN(c5ccccc5)CC4)sc3nc2c1 |  | inactive: -2.43%
16 | COc1ncccc1C(=O)N1CCC(n2nccc2NC(=O)CC(C)C)CC1 |  | inactive: 13.4%
17 | CCc1ccc2ncc(S(=O)(=O)c3ccc(C)c(C)c3)c(N3CCCC3)c2c1 | inconclusive [inhibitor, partial curve] | 
18 | O=S(=O)(c1ccccc1)N1CCN(C/C=C/c2ccccc2)CC1 | inconclusive [inhibitor, single point] | 
19 | CCOC(=O)C(=NC(C)CC)NNc1cccc(C(F)(F)F)c1 (stereo unspecified) | inconclusive [inhibitor, single point] | 
20 | COC(=O)c1ccccc1N(C)S(=O)(=O)c1cc2c3c(c1)CC(=O)N3CCC2 |  | inactive: 18.9%
21 | CCc1ccc(NC(=O)Cn2c(=O)nc(-c3ccccc3F)c3cc(Cl)ccc32)cc1 |  | inactive: 6.54%
22 | O=C(Cn1cnc2c(nnn2Cc2ccc(F)cc2)c1=O)N1CCN(c2ccccc2)CC1 |  | inactive: 1.05%

Row | Structure (SMILES) | Potency | activity change, negative = inhibition
23 | O=C(Nc1ccc(Oc2ccccc2)cc1)c1ccc(F)c(S(=O)(=O)N2CCN(c3ccccc3F)CC2)c1 | inconclusive [inhibitor, full curve, poor fit] | 
24 | CCOC(=O)c1sc2nc(CC(=O)OC)nc(N3CCN(c4ccc(OC)cc4)CC3)c2c1C | active: 3.98 µM | 
25 | O=C(NCc1cccnc1)C1CC(c2cccc(Br)c2)=NO1 (stereo unspecified) | inconclusive [inhibitor, full curve] | 
26 | O=C(C#Cc1ccccc1)Nc1ccccc1F | inconclusive [inhibitor, single point] | 
27 | O=C(NC(=S)Nc1cccc(C(F)(F)F)c1)c1csnn1 | inconclusive [inhibitor, single point] | 
28 | Cc1onc(-c2ccccc2Cl)c1C(=O)Nc1ccc(S(=O)(=O)Nc2nccs2)cc1 | inconclusive [inhibitor, partial curve, poor fit] | 
29 | Cc1ccc(C(=O)Nc2c(C)cc(-c3ccc(Cl)cc3)oc2=O)cc1 |  | inactive: 0.406%
30 | CC(C)(C)C1=CC(=Nc2ccccc2N)C=C(C(C)(C)C)C1=O | inconclusive [inhibitor, single point] | 
31 | O=C1CSC(=S)N1c1ccc(F)c(Cl)c1 | inconclusive [inhibitor, single point] | 
32 | Cc1ccc(N2C(=O)N3[C@H](c4ccc(Cl)cc4)[C@@H]4C(=O)N(C5CCCCC5)C(=O)[C@@H]4[C@]3(Cc3ccccc3)C2=O)cc1 | inconclusive [inhibitor, partial curve, poor fit] | 
33 | CCc1ccccc1NC(=O)C1CCN(c2nc3ccccc3[nH]2)CC1 |  | inactive: 7.68%
34 | COc1ccc(OC)c(CN2CCN(Cc3cccc4ccccc34)CC2)c1 | inconclusive [inhibitor, partial curve, poor fit] | 
35 | C/C(=N\NC(=O)c1n[nH]c2c1CCC2)c1cccs1 |  | inactive: -24.1%
36 | CCN(CC)C(=O)CSc1nnc(SCc2ccc(Cl)cc2)s1 | inconclusive [inhibitor, single point] | 
37 | CSc1ccc(CNC(=O)C2CCC(=O)N(CCc3ccc(Cl)cc3)C2)cc1 (stereo unspecified) | inconclusive [inhibitor, single point] | 
38 | O/N=C/c1cn(-c2ccccc2)nc1-c1ccc2c(c1)OCCO2 | inconclusive [inhibitor, partial curve, poor fit] | 
39 | Cc1ccc(C)c2c1[nH]c1ccccc12 | inconclusive [inhibitor, single point] | 
40 | O=C(COc1ccc(F)cc1Cl)Nc1cc(S(=O)(=O)N2CCOCC2)ccc1N1CCCCC1 | inconclusive [inhibitor, single point] | 
41 | COc1cccc(C(=O)COC(=O)c2cc(-c3cccs3)nc3ccccc23)c1 |  | inactive: -26.5%
42 | CCOc1ccc(OCc2ccc(C(=O)NN)o2)cc1 | inconclusive [inhibitor, single point] | 
43 | O=C(Nc1ccccc1)C(=O)Nc1ccccn1 | inconclusive [inhibitor, partial curve, poor fit] | 
44 | O=S(=O)(Nc1ccc(Nc2ccccc2)cc1)c1ccc(F)cc1 | inconclusive [inhibitor, partial curve, poor fit] | 

Row | Structure (SMILES) | Potency | activity change, negative = inhibition
45 | CCOC(=O)C1(CCOc2ccccc2)CCN(Cc2cccc(F)c2)CC1 | inconclusive [inhibitor, partial curve, poor fit] | 
46 | O=[N+]([O-])c1ccc(N/N=C/C=C/c2ccco2)cc1 |  | inactive: -60.9%
47 | CN(C)CCNC(=S)NC1CCCCC1 |  | inactive: 0.0671%
48 | Cc1cnc(NC(=O)[C@H](C)N2C(=O)C3CCCCC3C2=O)s1 (stereo partly specified) |  | inactive: 35.9%
49 | O=C(COc1ccc(Br)cc1)NC(=S)Nc1ccccc1N1CCOCC1 | inconclusive [inhibitor, partial curve, poor fit] | 
50 | Cc1ccc(CCNS(=O)(=O)c2ccc3c(c2)CC(C)N3C(=O)C2CCC2)cc1 (stereo unspecified) | inconclusive [inhibitor, single point] | 
51 | Oc1ccc(C2=NNC(=NCc3ccc4c(c3)OCO4)SC2)c(O)c1 | inconclusive [inhibitor, single point] | 
52 | CCCCC(=O)N/N=C(\C)CC(=O)Nc1cc(Cl)ccc1OC | inconclusive [inhibitor, partial curve, poor fit] | 
53 | Cc1oc(-c2ccccc2Cl)nc1Cn1c(SCc2cccc(F)c2)nc2cccnc21 | inconclusive [inhibitor, single point] | 
54 | CCOC(=O)C1(Cc2ccccc2)CCN(Cc2csc(C(C)=O)c2)CC1 | inconclusive [inhibitor, partial curve, poor fit] | 
55 | Cc1ccc(C(C)C)cc1C(=O)CC1(O)C(=O)N(C)c2ccccc21 (stereo unspecified) | inconclusive [inhibitor, full curve, poor fit] | 
56 | CCN(c1ccc(NC(=O)COC(=O)CCc2nc3ccccc3n2-c2ccccc2)cc1)C(C)C | inconclusive [inhibitor, single point] | 
57 | O=C(COC(=O)c1cccs1)NCCN1C(=O)CSC1=O |  | inactive: 2.35%
58 | Cc1ccc(C)c(Nc2nc(N)c3ccccc3n2)c1 | inconclusive [inhibitor, single point] | 
59 | CC(C)OCCCNC(=O)Cn1ccc2cc(S(=O)(=O)N3CCCCCC3)ccc21 | inconclusive [inhibitor, single point] | 
60 | CCn1nnnc1SCC(=O)c1ccc(C)cc1C | inconclusive [inhibitor, single point] | 
61 | Cc1cc(C)c(S(=O)(=O)N/N=C/c2ccc([N+](=O)[O-])o2)c(C)c1 |  | inactive: 8.84%
62 | Cc1ccc(S(=O)(=O)N2CC3(O)CN(C(=O)OC(C)C)N(C(=O)OC(C)C)CC3(OC(=O)NCC3CCCCC3)C2)cc1 (stereo unspecified) | inconclusive [inhibitor, single point] | 
63 | Cc1[nH]n(-c2ccc(Cl)cc2)c(=O)c1/C=N/n1c(C)nc2ccccc2c1=O | inconclusive [inhibitor, single point] | 
64 | O=C1[C@@H]2Cc3c([nH]c4ccccc34)C(c3ccccc3)N2C(=O)CN1C1CCN(Cc2ccccc2)CC1 (stereo partly specified) | active: 2.24 µM | 
65 | Cc1c(NS(=O)(=O)c2cc(C(=O)OCC(=O)c3ccccc3F)ccc2Cl)c(=O)n(-c2ccccc2)n1C |  | inactive: -4.64%
66 | CCn1c(=N)n(CCOc2ccc(Br)cc2)c2ccccc21 | inconclusive [inhibitor, single point] | 
